Source: article PMC4336329 (PLoS ONE, 2015)
Screen size: about 310,000 compounds; about 14,000 (4.5%) showed an effect of 50% or more. Effects have a minus sign here. The list shows a part of the results.

molecular target: human ether-à-go-go-related gene (hERG) potassium channel (human, UniProt Q12809); assay: primary screen, population patch clamp on CHO cells stably expressing hERG
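Further: peak tail current of the secondary pulse compared with the same well before compound.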

Chain of human ether-à-go-go-related gene (hERG) potassium channel (Q12809 whole entry, looked up): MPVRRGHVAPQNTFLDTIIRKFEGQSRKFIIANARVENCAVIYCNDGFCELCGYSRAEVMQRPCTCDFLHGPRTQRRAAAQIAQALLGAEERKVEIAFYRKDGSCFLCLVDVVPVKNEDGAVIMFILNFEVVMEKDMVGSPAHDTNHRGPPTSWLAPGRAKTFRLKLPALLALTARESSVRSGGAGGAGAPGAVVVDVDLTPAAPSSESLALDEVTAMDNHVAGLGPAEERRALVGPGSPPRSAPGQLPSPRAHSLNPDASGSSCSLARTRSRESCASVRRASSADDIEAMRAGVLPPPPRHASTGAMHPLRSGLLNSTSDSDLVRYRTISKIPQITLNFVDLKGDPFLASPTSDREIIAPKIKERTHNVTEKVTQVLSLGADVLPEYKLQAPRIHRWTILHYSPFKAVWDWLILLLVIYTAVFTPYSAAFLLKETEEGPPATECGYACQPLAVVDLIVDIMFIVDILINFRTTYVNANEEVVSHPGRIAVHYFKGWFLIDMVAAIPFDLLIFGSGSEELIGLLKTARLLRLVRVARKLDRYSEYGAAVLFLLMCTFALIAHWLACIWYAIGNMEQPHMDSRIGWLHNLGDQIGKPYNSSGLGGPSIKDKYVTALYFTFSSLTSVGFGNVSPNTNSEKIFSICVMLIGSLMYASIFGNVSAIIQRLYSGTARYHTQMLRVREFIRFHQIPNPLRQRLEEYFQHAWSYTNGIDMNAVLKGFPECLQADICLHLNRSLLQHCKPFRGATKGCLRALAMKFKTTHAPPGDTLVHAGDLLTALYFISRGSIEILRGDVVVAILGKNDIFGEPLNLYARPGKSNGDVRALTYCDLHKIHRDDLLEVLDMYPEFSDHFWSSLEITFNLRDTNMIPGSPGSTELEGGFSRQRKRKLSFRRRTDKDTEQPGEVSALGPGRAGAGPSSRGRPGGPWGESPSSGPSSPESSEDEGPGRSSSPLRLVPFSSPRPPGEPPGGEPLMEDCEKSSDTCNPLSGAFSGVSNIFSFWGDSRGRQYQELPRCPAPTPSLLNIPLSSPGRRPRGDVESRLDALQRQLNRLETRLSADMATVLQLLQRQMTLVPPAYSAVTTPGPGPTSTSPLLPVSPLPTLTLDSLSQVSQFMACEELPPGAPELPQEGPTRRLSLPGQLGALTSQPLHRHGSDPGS

SMILES | hERG current change (%, negative = inhibition) at 10uM
COC(=O)c1nnn(-c2nonc2N)c1CSc1nnc(C)s1 | -1.84%
CC(C)Cc1nc(SCC(=O)N2CCCC2)c2c(=O)n(C)c(=O)n(C)c2n1 | -31.3%
O=C(NCc1cccnc1)/C(=C/c1ccccc1)NC(=O)c1ccccc1 | -34.5%
CSc1ncccc1C(=O)OCC(=O)c1cc2ccccc2o1 | 5.26%
O=C(Cn1ccc(NC(=O)OCc2ccccc2)nc1=O)NCCc1ccccn1 | 5.97%
Cc1nn(CC(=O)NCCN2CCOCC2)c(=O)c2ccccc12 | 22.9%
CC(C)Cn1c(-c2csc3c2CCCC3)n[nH]c1=S | 8.85%
COC(=O)[C@@]1(Cc2ccc(F)cc2)[C@H]2c3cc(C(=O)N4CCCC4)n(CCc4ccc(O)c(O)c4)c3C[C@H]2CN1C(=O)c1ccccc1 | -15.5%
CN(C)S(=O)(=O)c1cccc(NC(=O)c2ccc(OC(F)(F)F)cc2)c1 | -27.8%
O=C(Nn1cc(C(=O)N2CCN(c3ccccc3F)CC2)c2ccccc2c1=O)c1cnccn1 | 2.84%
Cc1c(-c2ccnc3cc(C(=O)O)nn23)cnn1C | 9.17%
Cc1noc(NC(=O)c2ccccc2C(F)(F)F)c1C#N | -46%
O=C(C1CCN(S(=O)(=O)Cc2ccccc2)CC1)N1CCN(c2ncccn2)CC1 | -2.53%
COc1ccc(NC(=O)c2c(Cl)n(C)c3ccccc23)cc1 | 4.91%
O=c1cc(-c2ccc(O)c(O)c2)oc2c1ccc1ccccc12 | 6.87%
Cc1onc(-c2ccccc2)c1C(=O)N/N=C/c1ccc([N+](=O)[O-])c(O)c1 | 10.1%
S=c1[nH]nc(-c2ccncc2)n1Cc1ccco1 | 20.8%
CC1CCCCN1C(=O)Nc1ccccc1Cl (stereo not drawn) | 0.388%
CCN1C(=O)[C@@H]2[C@@H](c3ccc(-c4ccc5c(c4)OCO5)c(OC)c3)N3CCC[C@@]3(C(=O)OC)[C@@H]2C1=O.O=C(O)C(F)(F)F | -46%
Cl.O=C(NC1=NCCS1)c1cc(-c2cccnc2)nc2ccccc12 | 5.99%
O=S(=O)(c1cccc(-c2n[nH]c(=S)o2)c1)N1CCOCC1 | 14.9%
COCCCNC(=O)Cn1ncc2ccsc2c1=O | 13.6%

SMILES | hERG current change (%, negative = inhibition) at 10uM
CC(C)CC(=O)N1CCC(O)(CS(=O)(=O)c2ccc(Cl)c(Cl)c2)CC1 | -7.39%
Cc1cnc2c(C(=O)O)cnn2c1 | 20.2%
Cc1cc(O)ccc1Nc1nc(-c2cccs2)cs1 | -3.9%
COc1ccc2[nH]c(=O)c(CN(Cc3nnnn3Cc3ccccc3)CC3CCCO3)cc2c1 (stereo not drawn) | -15.8%
CCC(OC(=O)c1cccs1)C(=O)NC1CCCCC1 (stereo not drawn) | -8.49%
Cc1cccc(/C=N/NC(=O)Cn2nnnc2N)n1 | 2.15%
Cc1ccc(S(=O)(=O)NCc2cn3c(C)csc3n2)cc1 | -2.8%
COc1ccccc1NC(=O)CSc1nnc(Cc2cccn2C)n1-c1ccc(F)cc1 | -30.5%
CCCc1nnc(NC(=O)CCCN2C(=O)c3ccccc3C2=O)s1 | 2%
CN(C)Cc1nc2ccccc2c(=O)n1Cc1nc(C(C)(C)C)cs1 | -23.1%
O=C(NCCCN1CCOCC1)c1ccc(CNS(=O)(=O)c2ccc(F)cc2)cc1 | 10.7%
O=C(c1sc2cc(Cl)ccc2c1Cl)N1CCN(CCc2ccccn2)CC1 | -69.6%
Cc1cc(N2C(=O)CCC2=O)n(-c2ccccc2)n1 | -24.1%
CCc1nnc(NS(=O)(=O)c2ccc(NS(=O)(=O)c3ccccc3)cc2)s1 | -2.17%
C=CCn1c(SCC(C)=O)nnc1-c1ccc2ncccc2c1 | 19%
Cc1csc2nc(COC(=O)c3cccc(N(C)C)c3)cc(=O)n12 | -32.5%
CCOC(=O)c1nnc(-c2ccccc2)nc1NCc1ccccc1 | -16.5%
O=C(Nc1ccc(O)c(C(=O)O)c1)Oc1ccccc1 | 19.5%
N#Cc1c(N)nc(N2CCCC2)c(C#N)c1-c1ccc(Cl)cc1 | 1.35%
CC(C)C(=O)Nc1cccc(C(=O)Nc2nnc(C(C)(C)C)s2)c1 | -15.2%
CC(C(=O)N1CCCCC1)N1CCN(S(=O)(=O)c2ccc(Cl)cc2)CC1.O=C(O)C(=O)O (stereo not drawn) | -14.1%
CCOC(=O)c1ccc(NC(=O)c2nn(C)cc2Br)cc1 | 7.53%

SMILES | hERG current change (%, negative = inhibition) at 10uM
CCOC(=O)N1CCN(CCc2ccccc2)CC1 | -6.3%
O=C(COc1ccc(F)cc1)NCC1(N2CCOCC2)CCCCC1 | -27.9%
COc1ccc(OC)c(/C=N/N=C(\N)c2nonc2N)c1 | -16.5%
CCc1nn(C(CC)C(=O)NCCCN2CC(C)CC(C)C2)c(=O)c2cc3oc(C)cc3n12 (stereo not drawn) | -37.6%
CN(C(=O)CSc1nc2ccccc2[nH]1)C1CCS(=O)(=O)C1 (stereo not drawn) | 15.7%
COc1ccccc1C(=O)COC(=O)CN1C(=O)C2CC=CCC2C1=O (stereo not drawn) | 26.3%
CCOc1ccc(C2NC(=O)C(C#N)=C(S)N2c2cccc(C)c2)cc1OC (stereo not drawn) | 22.9%
CSc1nc2cc(C)nn2c(-c2ccccc2)c1C#N | 10.4%
O=c1cc(-c2ccc(O)cc2)oc2c(C3OCC(O)C(O)C3O)c(O)c(C3OC(CO)C(O)C(O)C3O)c(O)c12 (stereo not drawn) | 9.99%
CC1=NN(c2ccccc2)C(=O)/C1=C/c1cccs1 | -2.14%
CCOc1cccc(OCCCCN2CCOCC2)c1 | -7.03%
CCNS(=O)(=O)c1ccc(CCC(=O)NCc2ccccn2)cc1 | 13.5%
O=S(=O)(Nc1cccnc1)c1ccc2c(c1)OCCO2 | 28.7%
CCNC(=O)NC(=O)C(C)OC(=O)c1ccc(SC)cc1OC (stereo not drawn) | 1.36%
O=C(c1cccc(F)c1)N1CCN(c2cccc(Cl)c2)CC1 | -16%
CCC(C)(C)C1CCC2(CC1)NC(=O)N(CC(=O)NCCOc1ccccc1)C2=O (stereo not drawn) | -4.15%
Cc1cnc(C(=O)OCC(=O)Nc2ccc(C)c(S(=O)(=O)N(C)C)c2)cn1 | 10%
CCCCC(=O)Nc1cccc(NC(=S)NC(=O)C(C)C)c1 | 3.44%
CCOC(=O)c1cccc(NC(=O)CN(c2ccc(OC)cc2)S(=O)(=O)c2c(C)noc2C)c1 | -10.5%
CC(=O)c1cccc(NC(=S)Nc2ccn(Cc3cccc4ccccc34)n2)c1 | -10.4%
COc1ccccc1CN(C(=O)CNC(=O)c1ccco1)C(C(=O)NCC1CCCO1)c1ccccc1 (stereo not drawn) | 10%
Cn1c(SCC(=O)N2CCN(c3ccccc3)CC2)nnc1-c1ccncc1 | -19.5%

SMILES | hERG current change (%, negative = inhibition) at 10uM
O=S(=O)(NCc1cc(-c2ccccc2)no1)c1ccccc1 | 2.73%
CN1CCN(S(=O)(=O)c2cccc(S(=O)(=O)c3ccc(Cl)c(Cl)c3)c2)CC1 | -12.6%
COc1cccc(N2CCN(C(=O)NC3CCCCC3)CC2)c1 | 2.57%
COc1cc(C2C(C#N)=C(N)Oc3cc4c(cc32)OCO4)cc(OC)c1OC (stereo not drawn) | 7.61%
CC[C@@H]1C(=O)OC[C@@H]1Cc1cncn1C.Cl | -7.8%
O=C(CSC1=NCCN1)NC(c1ccccc1)c1ccccc1 | -21.8%
CC1CCC(C(C)C)C(OC(=O)C[n+]2cccc(C(N)=O)c2)C1.[Cl-] (stereo not drawn) | 7.66%
COc1cccc(-c2nnc(-c3ccc(C(F)(F)F)cc3)o2)c1OC | -0.804%
O=C(Nc1nnc(S(=O)(=O)N2CCCCC2)s1)c1cccc(Br)c1 | 5.98%
C/C(N)=C(/C#N)C(=O)COC(=O)c1ccccc1Oc1ccccc1 | -25.2%
Cc1c(S(=O)(=O)N2CC(C)CC(C)C2)c(=O)n(C)c(=O)n1C (stereo not drawn) | 4.19%
Cc1cccc(N2CCN(Cc3nc(-c4cccc(Oc5ccccc5)c4)oc3C)CC2)n1 | 4.13%
N#C/C(=N/Nc1ccc(S(=O)(=O)N2CCOCC2)cc1)C(N)=O | 3.46%
COc1ccc(N2C(=O)C3ON(C4SC(=S)N(C)C4(C)C)C(c4ccc([N+](=O)[O-])cc4)C3C2=O)cc1 (stereo not drawn) | 13.4%
Cc1ccc(/C=N/n2c(-c3cccnc3)n[nH]c2=S)s1 | 6.3%
O=C(CCCn1c(=O)[nH]c2cc(Cl)ccc2c1=O)NC1CCCCCCC1 | 3.76%
COc1ccc2oc(C(=O)OC/C(O)=C(\C#N)c3nc4ccccc4[nH]3)c(C)c2c1 | -1.11%
COC(=O)C1=C(c2ccc(-c3ccccc3)c(F)c2)C[C@@H]2CC[C@H]1N2C(=O)NCCOc1ccc(OC)cc1 | 14.7%
COC(=O)C1=C(c2ccccc2OCc2ccccc2)C[C@@H]2CC[C@H]1N2C(=O)NCc1ccc(Br)cc1 | 6.55%
CN(/N=C/c1ccc(Br)o1)C1=NS(=O)(=O)c2ccccc21 | 7.33%
CCCn1c(=O)c(C(=O)NCc2ccccc2OC)c(O)c2ccccc21 | 18.1%
